Results on five compounds are retold here after PubChem BioAssay (NCI).

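Briefly, cells in 96-well plates were exposed to five compound concentrations for 48 h, and endpoints were estimated by linear interpolation. Abbreviation: GI50, concentration required for 50% inhibition of growth.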 Certain results were filed several times, with different values. The list is limited to them. There may be further records. Records of one sample usually come from different ranges of test concentrations, which the source does not state; a value can be the end of its range. Brackets tell where a record comes from. The letters are not those of the source and start again with each entry.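 The concentration for full growth arrest is given as TGI.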

Test systems include HCT-15 colon; SK-OV-3 ovarian; HL-60(TB) leukemia; MDA-MB-231 breast; COLO 205 colon; NCI-H23 lung; K-562 leukemia; SR leukemia; UACC-62 melanoma; CCRF-CEM leukemia; SN12C renal; RPMI-8226 leukemia; HCT-116 colon; M14 melanoma; SK-MEL-5 melanoma; NCI/ADR-RES ovarian; MOLT-4 leukemia; DU-145 prostate; A498 renal; OVCAR-3 ovarian; MCF7 breast; KM20L2 colon; SF-268 CNS; P388 leukemia; U251 CNS; SK-MEL-28 melanoma; 786-0 renal; RXF 393 renal; CAKI-1 renal; SK-MEL-2 melanoma; HCC-2998 colon; SF-539 CNS; HOP-62 NSCLC; SF-295 CNS; TK-10 renal; KM12 colon; XF 498 CNS; DMS 273 small cell lung; NCI-H460 lung; SNB-19 CNS; SNB-78 CNS; SNB-75 CNS; MALME-3M melanoma; HOP-92 NSCLC; DLD-1 colon; OVCAR-5 ovarian; M19-MEL melanoma; HT29 colon; OVCAR-4 ovarian; NCI-H522 lung; EKVX NSCLC; NCI-H226 lung; UACC-257 melanoma.

Common to all, as to assay: NCI tumour cell line growth inhibition, 48 h

As for `Cc1ccnc2[nH]c(-c3ccccc3)cc(=O)c12`, the TGI in the assay on HCT-15 colon was 182 nM and 3.67 µM; with SK-OV-3 ovarian, 133 nM and > 100 µM; with HL-60(TB) leukemia, 5.68 nM and > 100 µM; with MDA-MB-231 breast it was 9.31 µM and > 100 µM; in the assay with COLO 205 colon, 20.1 nM and 1.64 µM; in the assay on NCI-H23 lung it was 152 nM and > 100 µM. In addition, the TGI in the assay with K-562 leukemia was 93.7 nM and > 100 µM; in the assay on SR leukemia it was 366 nM and > 100 µM; in the assay on UACC-62 melanoma, 56.4 nM and > 100 µM; in the assay on CCRF-CEM leukemia it was 86.2 nM and > 100 µM; in the assay with SN12C renal it was 2.04 µM and > 100 µM; in the assay on RPMI-8226 leukemia it was 4.01 µM and > 100 µM.
Regarding `COc1ccc(/C=C\c2cc(OC)c(OC)c(OC)c2)cc1OC(=O)CCC(=O)O`, the TGI in the assay with HCT-116 colon was < 0.1 nM and > 100 µM; in the assay with M14 melanoma it was < 0.1 nM and > 100 µM; in the assay on MDA-MB-231 breast, < 0.1 nM and > 100 µM; in the assay with SK-MEL-5 melanoma, < 0.1 nM and 20.4 µM; in the assay on K-562 leukemia it was < 0.1 nM and > 100 µM; in the assay with NCI/ADR-RES ovarian, < 0.1 nM and 23.9 µM. Besides, the TGI was < 0.1 nM and > 100 µM in the assay with MOLT-4 leukemia; < 0.1 nM and > 100 µM in the assay with UACC-62 melanoma; < 0.1 nM and > 100 µM in the assay on DU-145 prostate; < 0.1 nM and 86.2 µM in the assay on A498 renal; < 0.1 nM and > 100 µM in the assay with OVCAR-3 ovarian.
On to `COc1cc2c[n+](C)c3c4ccccc4ccc3c2cc1OC` (tested in a mixture with another compound), for which the TGI in the assay with K-562 leukemia was 7.9 µM and > 100 µM; in the assay with SR leukemia, 2.91 µM and 74.2 µM; in the assay on MCF7 breast, 9.09 µM and > 100 µM; in the assay on RPMI-8226 leukemia it was 5.16 µM and > 76.1 µM.
`NC(=O)C#CC(N)=O`: the GI50 is > 100 µM [sample A, mean of 2 tests] and 44.9 µM [sample B, 1 test] and 2.08 µM [sample B, mean of 2 tests] in the assay with KM20L2 colon; 15.4 µM and > 875 µM in the assay on SF-268 CNS; 1.68 µM and 87.5 nM in the assay with P388 leukemia. Also, the TGI is > 100 µM [sample A, mean of 2 tests] and 165 µM [sample B, 1 test] and 3.94 µM [sample B, mean of 2 tests] in the assay with KM20L2 colon; > 100 µM [sample A] and 31.6 µM, > 875 µM [sample B] in the assay on SF-268 CNS; 13.9 µM [sample A] and 5.15 µM, 57.9 µM [sample B] with CCRF-CEM leukemia; 4.74 µM and 406 nM with P388 leukemia.
For `CCN(CCCl)CCCNc1c2ccccc2nc2ccc(OC)cc12`, the TGI in the assay on U251 CNS is 1.53 µM and 2.41 mM; in the assay on SK-MEL-28 melanoma, 2.08 µM and 1.68 mM; in the assay on M14 melanoma, 1.99 µM and 769 µM; in the assay on SK-OV-3 ovarian, 2.31 µM and 1.68 mM; with HL-60(TB) leukemia it was 273 nM and 1.26 mM; with 786-0 renal it was 1.52 µM and 735 µM. The TGI in the assay with RXF 393 renal was 1.16 µM and 1.2 mM; in the assay on CAKI-1 renal it was 1.49 µM and 844 µM; in the assay on SK-MEL-2 melanoma, 2.19 µM and 1.25 mM; with SK-MEL-5 melanoma, 1.74 µM and 1.56 mM; with NCI-H23 lung, 1.04 µM and 1.75 mM; in the assay on HCC-2998 colon, 1.81 µM and 953 µM. Also, the TGI in the assay with SF-539 CNS is 1.63 µM and 1.92 mM; in the assay with K-562 leukemia it was 10.5 µM and 1.01 mM; in the assay with HOP-62 NSCLC, 2.81 µM and 1.12 mM; in the assay on SF-295 CNS, 1.74 µM and 1.72 mM; with TK-10 renal, 4.54 µM and 2.8 mM; in the assay with KM12 colon, 1.47 µM and 1.52 mM. The TGI was 838 nM and 888 µM in the assay with XF 498 CNS; 1.17 µM and 1.24 mM in the assay on DMS 273 small cell lung; 1.94 µM and 2.09 mM with SF-268 CNS; 1.62 µM and 803 µM with NCI-H460 lung; 2.27 µM and 1.58 mM in the assay with SNB-19 CNS; 259 nM and 500 µM in the assay with MOLT-4 leukemia. Besides, the TGI in the assay on SNB-78 CNS was 3.06 µM and 5.66 mM; in the assay with SNB-75 CNS, 2.24 µM and 1.49 mM; in the assay on MALME-3M melanoma, 1.84 µM and 1.46 mM; with UACC-62 melanoma it was 1.39 µM and 815 µM; with HOP-92 NSCLC, 711 nM and 993 µM; in the assay with DLD-1 colon, 1.59 µM and 1.36 mM. For the same compound, the TGI is 1.66 µM and 1.25 mM with OVCAR-5 ovarian; 869 nM and 1.07 mM with CCRF-CEM leukemia; 1.42 µM and 1.12 mM with M19-MEL melanoma; 1.63 µM and 1.34 mM in the assay with HT29 colon; 2.59 µM and 1.36 mM with OVCAR-4 ovarian; 2.5 µM and 526 µM with OVCAR-3 ovarian. Further, the TGI with NCI-H522 lung was 1.61 µM and 712 µM; in the assay on EKVX NSCLC, 3.18 µM and 1.66 mM; in the assay with SN12C renal, 1.61 µM and 817 µM; in the assay with NCI-H226 lung it was 723 nM and 2.41 mM; with UACC-257 melanoma, 2.64 µM and 1.32 mM.
